About 2,200 (0.71%) of roughly 310,000 compounds showed an effect of 50% or more. Effects have a minus sign here. The list shows a part of the results.
Target: human ether-à-go-go-related gene (hERG) potassium channel (human, UniProt Q12809)
Test: primary screen, population patch clamp on CHO cells stably expressing hERG

Sequence of human ether-à-go-go-related gene (hERG) potassium channel (Q12809 whole entry, looked up): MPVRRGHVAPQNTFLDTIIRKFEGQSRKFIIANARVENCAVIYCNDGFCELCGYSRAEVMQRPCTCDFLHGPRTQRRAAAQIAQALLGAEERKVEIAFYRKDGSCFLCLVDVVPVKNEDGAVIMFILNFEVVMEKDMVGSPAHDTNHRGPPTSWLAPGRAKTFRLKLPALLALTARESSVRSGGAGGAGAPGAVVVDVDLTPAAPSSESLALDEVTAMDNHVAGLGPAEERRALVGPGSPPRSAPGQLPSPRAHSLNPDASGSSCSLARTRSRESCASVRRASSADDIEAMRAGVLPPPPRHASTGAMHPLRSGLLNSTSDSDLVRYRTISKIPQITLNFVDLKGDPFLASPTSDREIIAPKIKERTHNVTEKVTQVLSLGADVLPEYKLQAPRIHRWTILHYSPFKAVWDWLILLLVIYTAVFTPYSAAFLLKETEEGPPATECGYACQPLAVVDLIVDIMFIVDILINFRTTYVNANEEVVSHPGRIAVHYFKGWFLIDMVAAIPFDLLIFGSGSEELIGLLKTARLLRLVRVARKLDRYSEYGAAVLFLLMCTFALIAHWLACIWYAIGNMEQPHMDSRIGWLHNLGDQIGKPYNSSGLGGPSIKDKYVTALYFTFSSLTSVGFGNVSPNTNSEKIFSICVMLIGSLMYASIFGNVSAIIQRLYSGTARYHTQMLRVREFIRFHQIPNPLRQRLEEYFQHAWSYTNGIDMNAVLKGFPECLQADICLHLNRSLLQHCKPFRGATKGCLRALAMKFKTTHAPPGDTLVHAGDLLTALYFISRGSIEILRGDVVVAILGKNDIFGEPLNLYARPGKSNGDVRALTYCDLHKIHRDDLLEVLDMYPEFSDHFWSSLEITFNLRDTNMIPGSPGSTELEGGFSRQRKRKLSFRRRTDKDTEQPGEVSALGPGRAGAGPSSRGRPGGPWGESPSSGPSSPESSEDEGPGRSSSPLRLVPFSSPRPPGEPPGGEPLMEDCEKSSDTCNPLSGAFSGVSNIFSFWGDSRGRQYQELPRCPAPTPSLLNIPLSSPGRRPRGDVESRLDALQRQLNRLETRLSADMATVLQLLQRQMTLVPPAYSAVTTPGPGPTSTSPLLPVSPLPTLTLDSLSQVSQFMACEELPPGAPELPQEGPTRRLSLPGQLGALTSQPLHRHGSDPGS

SMILES | hERG current change (%, negative = inhibition) at 1uM [%]
COc1ccc(NS(=O)(=O)c2cccc(C(=O)NCC(c3ccc(OC)cc3)N3CCCC3)c2)cc1 (centres unmarked) | -3.56
Cc1ccc(C(=O)Nc2ccc3c(c2)OCCO3)cc1 | 10.5
Cc1cc2c(ncn2C)c(NS(=O)(=O)c2ccccc2Cl)c1C | -2.76
Cc1ccc(N(C)S(=O)(=O)c2ccc(-c3cnc(C4CC4)o3)cc2)cc1 | 15.1
Cc1nc2ccccc2c2oc(C(=O)NCCN3CCCCC3C)cc12 (centres unmarked) | 11.8
COc1ccc(C(=O)Nc2ccccc2C(=O)N2CCOCC2)cc1Br | -3.34
CC(C)(C)C(=O)NC(=S)N1CCCC1 | 9.63
O=C(c1cc([N+](=O)[O-])ccc1N1CCCCC1)N1CCCC1 | 12.4
O=C(c1ccccc1)N1N=C(C(F)(F)F)CC1(O)c1ccccc1O (centres unmarked) | 13.4
COc1cc2c(cc1OC)C1=C(C#N)COCN1CC2 | 6.47
CS(=O)(=O)N(CC(=O)Nc1ccc(S(=O)(=O)N2CCCC2)cc1)c1ccccc1F | 4.41
NC(=O)C1CCN(C(=O)c2ccc3c(=O)n(Cc4ccco4)c(SCC(=O)c4ccc(F)cc4)nc3c2)CC1 | 7.76
Cc1ccc(C(=O)Nc2ccon2)cc1S(=O)(=O)N1CCCC1 | -2.03
Cl.O=C(c1ccco1)N1CCN(CCCCOc2ccc(F)cc2)CC1 | -74.8
c1ccc2[nH]c(SCc3cn4cccnc4n3)nc2c1 | 4.07
Cn1c(=O)c([N+](=O)[O-])c(NCc2ccccc2Cl)c2ccccc21 | 1.47
CC(C)CN(C(=O)CSc1nnnn1C)C1CCS(=O)(=O)C1 (centres unmarked) | 17.1
CS/C(=N\S(=O)(=O)c1cccs1)NC(=O)CSc1nc2ccccc2s1 | 13.9
O=C(c1cc2ccccc2oc1=O)N(Cc1ccco1)CC1CCCO1 (centres unmarked) | 4.51
CCOc1cc(CNc2ccc3c(c2)CCC3)ccc1OC | -1.65
O=C(c1ccc(Cl)c([N+](=O)[O-])c1)N1CCN(Cc2ccc3c(c2)OCO3)CC1 | -9.4
Cc1nc(Cl)c2c(n1)NC(=O)CO2 | 15.4
COc1cccc(NC(=O)Nc2cc(C(=O)NC(C)C)ccc2N2CC3CC(C2)c2cccc(=O)n2C3)c1 (centres unmarked) | 15.3

SMILES | hERG current change (%, negative = inhibition) at 1uM [%]
CC1(c2ccccc2)NC(=O)N(CC(=O)Nc2ccc(C(N)=O)cc2)C1=O (centres unmarked) | 16.2
O=C(NCc1cccc(C(F)(F)F)c1)c1cccc(Cl)c1Cl | -0.138
O=C(NC1CC1)C1CCN(c2ncnc3c2sc2cccc(F)c23)CC1 | -0.298
COc1ccc(NC(=O)CCl)cn1 | 11.1
c1cncc(CSc2ccc(-c3cccs3)nn2)c1 | -4
CCCCN(CC)CCNC(=O)Cn1cnc2sc(C)c(S(=O)(=O)N3CCOCC3)c2c1=O | 9.32
CN(C)S(=O)(=O)c1ccc(C(=O)N(c2ccccn2)c2ccccn2)cc1 | 10.3
Cc1ccccc1NC(=O)C1CCCN1/C=C/C(=O)C(F)(F)F (centres unmarked) | 10.2
N#CC(C#N)=Cc1cccn1-c1ccc(S(N)(=O)=O)cc1 | 13
Cc1cccc(NC2(C(F)(F)F)N=C3SCCN3C2=O)n1 (centres unmarked) | 10.8
O=C(c1ccccc1Cl)N1N=C(c2ccc(Br)cc2)CC1c1nc2ccccc2[nH]1 (centres unmarked) | 0.704
Cc1ccc(-n2c(CSc3nc(C)cc(C)n3)n[nH]c2=S)cc1 | 14.7
CCCCn1c(SCC(=O)Nc2sc3c(c2C(N)=O)CCC3)nnc1-c1ccccc1 | 12.9
CCCc1c(C(=O)Nc2ccc(F)cc2C)cnn1-c1ccccc1 | 7.25
Cc1ccc(C)n1Cc1ccc(C(=O)O)cc1 | 12.1
N#Cc1ccc(C(=O)NC2CCCc3ccccc32)cc1 (centres unmarked) | -23.4
O=C(NN(CC(O)COc1ccccc1)CC(O)COc1ccccc1)c1ccccc1 (centres unmarked) | -19.9
Clc1ccc(-[n+]2c(-c3cccc(Br)c3)[nH]c3nc4ccccc4nc32)cc1 | 12
Cc1cc2c(N=O)c(NO)ccc2[nH]1 | 5.04
C#CCOCCOCCOCCNc1nc(N2CCN(C(=O)[C@H](CCCCN)n3cc([C@@H](N)CC(C)C)nn3)CC2)nc(N2CCN(C(=O)[C@H](Cc3cc4ccccc4[nH]3)n3cc([C@@H](N)Cc4ccc(O)cc4)nn3)CC2)n1.Cl | 5.89
CN(C)CCNC(=O)c1scc2c1CCCC2.Cl | 6.51
COc1ccc(C)cc1S(=O)(=O)N1CCC(C)CC1 | -10.9
CCOC(=O)c1c(S(=O)(=O)N2CCCC2)c(C)n(C)c1C | 12.8

SMILES | hERG current change (%, negative = inhibition) at 1uM [%]
O=C(Nc1cccn(Cc2ccccc2Cl)c1=O)NC1CCCCC1 | 5.93
Cc1ccsc1C(=O)N1CCC(N2CCC(C(=O)NCC3CCCO3)CC2)CC1 (centres unmarked) | 9.38
CC(C)c1ccc2nc3sc(C(=O)N4CCc5ccccc5C4)c(N)c3cc2c1 | 9.94
COc1cc2[nH]c(=S)nc(NCc3cccnc3)c2cc1OC | 13.2
CC(NC(=S)Nc1ccc([N+](=O)[O-])cc1)c1ccncc1 (centres unmarked) | 11.1
COC(=O)c1ccc(NC(=O)c2cccc(NC(=O)c3ccccc3)c2)cc1 | 17.5
Cc1ccc(C2CC2C(=O)NNC(=S)Nc2cccc(Cl)c2)cc1 (centres unmarked) | 0.828
COc1cc(/C=C/C(=O)O)cc(S(=O)(=O)N(CC(C)C)CC(C)C)c1OC | 20.5
COc1ccc(Cc2nnc(SCC(=O)c3ccc4c(c3)NC(=O)CO4)o2)cc1 | 13.6
CCN(CC)c1cccc(OC2=NS(=O)(=O)c3ccccc32)c1 | 6.59
O=C(CCl)N=c1sccn1Cc1ccccc1Cl | 12
CC1(C)Cc2ccccc2-c2nc(NCCO)n(-c3ccccc3)c(=O)c21 | -21.6
CCCOc1ccc(OCCOCCNCc2ccccc2)cc1.O=C(O)C(=O)O | -0.713
C[C@]12CCC3C(CCC4=CC(O)CC[C@@]43/C=N/O)C1(O)CCC2C1=CC(=O)OC1 (some centres unmarked) | 8.46
COc1ccc(-c2nc(CS(=O)CC(=O)NCc3ccccn3)c(C)o2)cc1 (centres unmarked) | 9.54
Cc1ccc(C(=O)NNC(=O)CSc2nnc(-c3ccncc3)n2-c2ccc(C)cc2)cc1 | -32.3
Cc1cccc(NC(=O)C2CCN(S(=O)(=O)c3cccs3)CC2)n1 | 2.08
CCc1ccc(NC(=S)Nc2ccc(S(=O)(=O)Nc3ncccn3)cc2)cc1 | 8.81
COc1cccc(C(=O)Nn2c(C)nnc2-n2nc(C)cc2C)c1 | -12.6
Cc1ccc(NC2=C(Cl)C(=O)OC2NC(=O)c2ccccc2)cc1 (centres unmarked) | 17
CCNC(=O)N1c2ccc(OC)cc2C(C)=CC1(C)C | 18.4
COC(C)(C)c1cc(C(C)(C)C)nc(N)n1 | 14.8
CCCc1cc(C(=O)N(C2CCCCC2)C2CCCCC2)no1 | 13.3

SMILES | hERG current change (%, negative = inhibition) at 1uM [%]
COc1ccccc1NC(=O)C1=C(C)Nc2nc(CCCO)nn2C1c1cccnc1 (centres unmarked) | 6.16
CC(=O)Nc1cccc(/C(C)=N/NC(N)=S)c1 | 10.3
Fc1ccc(CNCc2ccc(Br)cc2)cc1 | 7.11
COc1ccc(OC)c(CNc2ccc([N+](=O)[O-])cc2C)c1 | 5.54
CC(Nc1nc2ccccc2n2cnnc12)c1ccccc1 (centres unmarked) | -1.54
CCOCCCNC(=O)C1CC(=O)N(C2CCCC2)C1 (centres unmarked) | 7.51
COc1ccc2oc(=Nc3cc(F)ccc3F)c(C(N)=O)cc2c1 | -4.13
CCn1c(/C=C/c2ccccc2C)nc2ccccc2c1=O | 3.63
O=C(Nc1ccc(-c2nc3ncccc3o2)cc1)c1ccc([N+](=O)[O-])o1 | 11.6
CCN1C(=O)NC(=O)/C(=C/c2cc(C)n(-c3sc(C)c(C)c3C#N)c2C)C1=O | 14.3
COc1ccc(OCC(=O)NNC(=S)NC(=O)C2CCCCC2)cc1 | 10.3
COc1ccc(NC(=O)CSc2nc(O)cc(=O)n2-c2ccccc2)cc1 | 9.1
CN(c1ccccc1)c1nc(N)c([N+](=O)[O-])c(N2CCCC2)n1 | 8.02
CCCC(C)NC(=O)C1c2ccccc2Oc2ccccc21 (centres unmarked) | 17.4
CC(=O)n1c2ccccc2c2ccccc21 | 14.4
COc1ccc(-c2cc(C)no2)cc1S(=O)(=O)Nc1ccccc1 | 14.3
Cc1ccc(CSCC(=O)Nc2c(C)n(C)n(-c3ccccc3)c2=O)cc1 | 25.2
COc1ccccc1Nc1nc(Cl)c(C=O)s1 | 7.66
CCc1ccc(S(=O)(=O)NCCc2cn3ccccc3n2)s1 | -2.2
CCOc1ccc(S(=O)(=O)NCc2cccnc2)cc1 | 22

From paper PMC4336329 (PLoS ONE, 2015)
